Results on ten molecules are retold here after the supplement of paper PMC12423691.

B1: IRF9, Q00978 (protein)
chain: MASGRARCTRKLRNWVVEQVESGQFPGVCWDDTAKTMFRIPWKHAGKQDFREDQDAAFFKAWAIFKGKYKEGDTGGPAVWKTRLRCALNKSSEFKEVPERGRMDVAEPYKVYQLLPPGIVSGQPGTQKVPSKRQHSSVSSERKEEEDAMQNCTLSPSVLQDSLNNEEEGASGGAVHSDIGSSSSSSSPEPQEVTDTTEAPFQGDQRSLEFLLPPEPDYSLLLTFIYNGRVVGEAQVQSLDCRLVAEPSGSESSMEQVLFPKPGPLEPTQRLLSQLERGILVASNPRGLFVQRLCPIPISWNAPQAPPGPGPHLLPSNECVELFRTAYFCRDLVRYFQGLGPPPKFQVTLNFWEESHGSSHTPQNLITVKMEQAFARYLLEQTPEQQAAILSLV
B2: CHP1, Q99653 (protein)
chain: MGSRASTLLRDEELEEIKKETGFSHSQITRLYSRFTSLDKGENGTLSREDFQRIPELAINPLGDRIINAFFPEGEDQVNFRGFMRTLAHFRPIEDNEKSKDVNGPEPLNSRSNKLHFAFRLYDLDKDEKISRDELLQVLRMMVGVNISDEQLGSIADRTIQEADQDGDSAISFTEFVKVLEKVDVEQKMSIRFLH
B3: USF2, Q15853 (protein)
chain: MDMLDPGLDPAASATAAAAASHDKGPEAEEGVELQEGGDGPGAEEQTAVAITSVQQAAFGDHNIQYQFRTETNGGQVTYRVVQVTDGQLDGQGDTAGAVSVVSTAAFAGGQQAVTQVGVDGAAQRPGPAAASVPPGPAAPFPLAVIQNPFSNGGSPAAEAVSGEARFAYFPASSVGDTTAVSVQTTDQSLQAGGQFYVMMTPQDVLQTGTQRTIAPRTHPYSPKIDGTRTPRDERRRAQHNEVERRRRDKINNWIVQLSKIIPDCNADNSKTGASKGGILSKACDYIRELRQTNQRMQETFKEAERLQMDNELLRQQIEELKNENALLRAQLQQHNLEMVGEGTRQ
B4: FOXP2, O15409 (protein)
chain: MMQESATETISNSSMNQNGMSTLSSQLDAGSRDGRSSGDTSSEVSTVELLHLQQQQALQAARQLLLQQQTSGLKSPKSSDKQRPLQVPVSVAMMTPQVITPQQMQQILQQQVLSPQQLQALLQQQQAVMLQQQQLQEFYKKQQEQLHLQLLQQQQQQQQQQQQQQQQQQQQQQQQQQQQQQQQQQQQQQQQHPGKQAKEQQQQQQQQQQLAAQQLVFQQQLLQMQQLQQQQHLLSLQRQGLISIPPGQAALPVQSLPQAGLSPAEIQQLWKEVTGVHSMEDNGIKHGGLDLTTNNSSSTTSSNTSKASPPITHHSIVNGQSSVLSARRDSSSHEETGASHTLYGHGVCKWPGCESICEDFGQFLKHLNNEHALDDRSTAQCRVQMQVVQQLEIQLSKERERLQAMMTHLHMRPSEPKPSPKPLNLVSSVTMSKNMLETSPQSLPQTPTTPTAPVTPITQGPSVITPASVPNVGAIRRRHSDKYNIPMSSEIAPNYEFYKNADVRPPFTYATLIRQAIMESSDRQLTLNEIYSWFTRTFAYFRRNAATWKNAVRHNLSLHKCFVRVENVKGAVWTVDEVEYQKRRSQKITGSPTLVKNIPTSLGYGAALNASLQAALAESSLPLLSNPGLINNASSGLLQAVHEDLNGSLDHIDSNGNSSPGCSPQPHIHSIHVKEEPVIAEDEDCPMSLVTTANHSPELEDDREIEEEPLSEDLE
B5: SNAPC2, Q13487 (protein)
chain: MKPPPRRRAAPARYLGEVTGPATWSAREKRQLVRLLQARQGQPEPDATELARELRGRSEAEIRVFLQQLKGRVAREAIQKVHPGGLQGPRRREAQPPAPIEVWTDLAEKITGPLEEALAVAFSQVLTIAATEPVTLLHSKPPKPTQARGKPLLLSAPGGQEDPAPEIPSSAPAAPSSAPRTPDPAPEKPSESSAGPSTEEDFAVDFEKIYKYLSSVSRSGRSPELSAAESAVVLDLLMSLPEELPLLPCTALVEHMTETYLRLTAPQPIPAGGSLGPAAEGDGAGSKAPEETPPATEKAEHSELKSPWQAAGICPLNPFLVPLELLGRAATPAR
B6: EDA2R, Q9HAV5 (protein)
chain: MDCQENEYWDQWGRCVTCQRCGPGQELSKDCGYGEGGDAYCTACPPRRYKSSWGHHRCQSCITCAVINRVQKVNCTATSNAVCGDCLPRFYRKTRIGGLQDQECIPCTKQTPTSEVQCAFQLSLVEADTPTVPPQEATLVALVSSLLVVFTLAFLGLFFLYCKQFFNRHCQRGGLLQFEADKTAKEESLFPVPPSKETSAESQVSENIFQTQPLNPILEDDCSSTSGFPTQESFTMASCTSESHSHWVHSPIECTELDLQKFSSSASYTGAETLGGNTVESTGDRLELNVPFEVPSP
B7: PARK2, O60260 (protein)
chain: MIVFVRFNSSHGFPVEVDSDTSIFQLKEVVAKRQGVPADQLRVIFAGKELRNDWTVQNCDLDQQSIVHIVQRPWRKGQEMNATGGDDPRNAAGGCEREPQSLTRVDLSSSVLPGDSVGLAVILHTDSRKDSPPAGSPAGRSIYNSFYVYCKGPCQRVQPGKLRVQCSTCRQATLTLTQGPSCWDDVLIPNRMSGECQSPHCPGTSAEFFFKCGAHPTSDKETSVALHLIATNSRNITCITCTDVRSPVLVFQCNSRHVICLDCFHLYCVTRLNDRQFVHDPQLGYSLPCVAGCPNSLIKELHHFRILGEEQYNRYQQYGAEECVLQMGGVLCPRPGCGAGLLPEPDQRKVTCEGGNGLGCGFAFCRECKEAYHEGECSAVFEASGTTTQAYRVDERAAEQARWEAASKETIKKTTKPCPRCHVPVEKNGGCMHMKCPQPQCRLEWCWNCGCEWNRVCMGDHWFDV
B8: IFI16, Q16666 (protein)
chain: MGKKYKNIVLLKGLEVINDYHFRMVKSLLSNDLKLNLKMREEYDKIQIADLMEEKFRGDAGLGKLIKIFEDIPTLEDLAETLKKEKLKVKGPALSRKRKKEVDATSPAPSTSSTVKTEGAEATPGAQKRKKSTKEKAGPKGSKVSEEQTQPPSPAGAGMSTAMGRSPSPKTSLSAPPNSSSTENPKTVAKCQVTPRRNVLQKRPVIVKVLSTTKPFEYETPEMEKKIMFHATVATQTQFFHVKVLNTSLKEKFNGKKIIIISDYLEYDSLLEVNEESTVSEAGPNQTFEVPNKIINRAKETLKIDILHKQASGNIVYGVFMLHKKTVNQKTTIYEIQDDRGKMDVVGTGQCHNIPCEEGDKLQLFCFRLRKKNQMSKLISEMHSFIQIKKKTNPRNNDPKSMKLPQEQRQLPYPSEASTTFPESHLRTPQMPPTTPSSSFFTKKSEDTISKMNDFMRMQILKEGSHFPGPFMTSIGPAESHPHTPQMPPSTPSSSFLTTKSEDTISKMNDFMRMQILKEGSHFPGPFMTSIGPAESHPHTPQMPPSTPSSSFLTTLKPRLKTEPEEVSIEDSAQSDLKEVMVLNATESFVYEPKEQKKMFHATVATENEVFRVKVFNIDLKEKFTPKKIIAIANYVCRNGFLEVYPFTLVADVNADRNMEIPKGLIRSASVTPKINQLCSQTKGSFVNGVFEVHKKNVRGEFTYYEIQDNTGKMEVVVHGRLTTINCEEGDKLKLTCFELAPKSGNTGELRSVIHSHIKVIKTRKNKKDILNPDSSMETSPDFFF
B9: NFE2L1, Q14494 (protein)
chain: MLSLKKYLTEGLLQFTILLSLIGVRVDVDTYLTSQLPPLREIILGPSSAYTQTQFHNLRNTLDGYGIHPKSIDLDNYFTARRLLSQVRALDRFQVPTTEVNAWLVHRDPEGSVSGSQPNSGLALESSSGLQDVTGPDNGVRESETEQGFGEDLEDLGAVAPPVSGDLTKEDIDLIDILWRQDIDLGAGREVFDYSHRQKEQDVEKELRDGGEQDTWAGEGAEALARNLLVDGETGESFPAQVPSGEDQTALSLEECLRLLEATCPFGENAEFPADISSITEAVPSESEPPALQNNLLSPLLTGTESPFDLEQQWQDLMSIMEMQAMEVNTSASEILYSAPPGDPLSTNYSLAPNTPINQNVSLHQASLGGCSQDFLLFSPEVESLPVASSSTLLPLAPSNSTSLNSTFGSTNLTGLFFPPQLNGTANDTAGPELPDPLGGLLDEAMLDEISLMDLAIEEGFNPVQASQLEEEFDSDSGLSLDSSHSPSSLSSSEGSSSSSSSSSSSSSSASSSASSSFSEEGAVGYSSDSETLDLEEAEGAVGYQPEYSKFCRMSYQDPAQLSCLPYLEHVGHNHTYNMAPSALDSADLPPPSALKKGSKEKQADFLDKQMSRDEHRARAMKIPFTNDKIINLPVEEFNELLSKYQLSEAQLSLIRDIRRRGKNKMAAQNCRKRKLDTILNLERDVEDLQRDKARLLREKVEFLRSLRQMKQKVQSLYQEVFGRLRDENGRPYSPSQYALQYAGDGSVLLIPRTMADQQARRQERKPKDRRK
B10: SOX30, O94993 (protein)
chain: MERARPEPPPQPRPLRPAPPPLPVEGTSFWAAAMEPPPSSPTLSAAASATLASSCGEAVASGLQPAVRRLLQVKPEQVLLLPQPQAQNEEAAASSAQARLLQFRPDLRLLQPPTASDGATSRPELHPVQPLALHVKAKKQKLGPSLDQSVGPRGAVETGPRASRVVKLEGPGPALGYFRGDEKGKLEAEEVMRDSMQGGAGKSPAAIREGVIKTEEPERLLEDCRLGAEPASNGLVHGSAEVILAPTSGAFGPHQQDLRIPLTLHTVPPGARIQFQGAPPSELIRLTKVPLTPVPTKMQSLLEPSVKIETKDVPLTVLPSDAGIPDTPFSKDRNGHVKRPMNAFMVWARIHRPALAKANPAANNAEISVQLGLEWNKLSEEQKKPYYDEAQKIKEKHREEFPGWVYQPRPGKRKRFPLSVSNVFSGTTQNIISTNPTTVYPYRSPTYSVVIPSLQNPITHPVGETSPAIQLPTPAVQSPSPVTLFQPSVSSAAQVAVQDPSLPVYPALPPQRFTGPSQTDTHQLHSEATHTVKQPTPVSLESANRISSSASTAHARFATSTIQPPREYSSVSPCPRSAPIPQASPIPHPHVYQPPPLGHPATLFGTPPRFSFHHPYFLPGPHYFPSSTCPYSRPPFGYGNFPSSMPECLSYYEDRYPKHEGIFSTLNRDYSFRDYSSECTHSENSRSCENMNGTSYYNSHSHSGEENLNPVPQLDIGTLENVFTAPTSTPSSIQQVNVTDSDEEEEEKVLRDL

The list shows a part of the results. Binding of human transcription factors and regulators to the viral nucleoprotein by AlphaScreen, crude cell-free proteins, amounts not normalised, one pass. Fold of the Venus control; higher = more signal. No active / inactive call. Single-pass screen; sequences are the whole Swiss-Prot entries looked up by name.

For this experiment, the target named is nucleoprotein N of Crimean-Congo hemorrhagic fever virus. Description: AlphaScreen luminescence signal relative to Venus negative control (fold); higher = stronger binding to CCHFV N. On the procedure: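 AlphaScreen binding of cell-free made, FLAG-GST-tagged human transcription factors and regulators (crude translation products) to biotinylated N protein; signal as fold of the FLAG-GST-Venus control. One pass.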
In turn, B1 showed an AlphaScreen luminescence signal of 2.42.

B2 yielded an AlphaScreen luminescence signal of 1.91.

Consider B3, for which the AlphaScreen luminescence signal was determined as 2.

For B4, the AlphaScreen luminescence signal was 2.79.

With B5, the AlphaScreen luminescence signal amounted to 2.42.

B6 yielded an AlphaScreen luminescence signal of 2.37.

B7 registered an AlphaScreen luminescence signal of 1.58.

B8 yielded an AlphaScreen luminescence signal of 3.53.

Molecule B9 registered an AlphaScreen luminescence signal of 4.42.

Take B10: the AlphaScreen luminescence signal was 2.6.
